# Measurements: PubChem BioAssay (NCATS)
# Inconclusive means that the source gave no clear call. Such entries were picked first, then a sample of the others. No potency is given beside an inconclusive call; the fits are too rough. The source made the active and inactive calls. Calls follow the shape of the dose curve; as a rule, active = well fitted cell-killing curve with a large enough effect; inconclusive = small, poorly fitted or top-dose-only effect, or effect the other way; inactive = no such curve, though single readings can be large or run the other way.
# Assay: Viability qHTS for spleen associated tyrosine kinase inhibitor (SYKi) drug resistant MV4-11 cells (AID 1963824); also: nearly all actives have a fitted effect of over 35% in size
# Settings: SYKi-resistant MV4-11 viability, CellTiter-Glo, 72 h; series mostly up to 45 µM
# Summary of the method: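 SYK inhibitor-resistant MV4-11 AML cells, 500 per well, added to predispensed compounds and incubated 72 hr at 37 C, 5% CO2. Viability measured by CellTiter-Glo luminescence after 10 min at room temperature.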
# Potency is read from the fitted curve at half-maximal effect; tags tell the direction and shape of the fitted curve.
SMILES,"viability, % of control",Potency
C[C@@H]1O[C@@H](O[C@H]2[C@H](O[C@H]3[C@H](O[C@H]4CC[C@@]5(C=O)C(CC[C@]6(C)C5CC=C5C7CC(C)(C)C[C@@H](O)[C@]7(C)CC[C@]56C)C4(C)C)O[C@H](C(=O)O)[C@@H](O)[C@@H]3O)OC[C@@H](O)[C@@H]2O)[C@H](O)[C@H](O)[C@H]1O (stereo not given in full),inactive: 103% [at 9.25 µM],
COc1cc(/C=C/C(=O)O[C@H]2[C@H](O)[C@@H](CO)O[C@@]2(CO)O[C@H]2O[C@H](CO)[C@@H](O)[C@H](O)[C@H]2O)ccc1O,,inactive
Cc1ccc(C(=O)N(CCCN)C(c2oc3cc(Cl)ccc3c(=O)c2Cc2ccccc2)C(C)C)cc1 (stereo not given),,inactive
COc1cc(C(=O)OC[C@@]2(O)CO[C@@H](O[C@H]3[C@H](Oc4ccc(C(=O)O)cc4OC)O[C@H](CO)[C@@H](O)[C@@H]3O)[C@@H]2O)ccc1O,,inactive
CC(O)CCC1C(CO[C@@H]2O[C@H](CO)[C@@H](O)[C@H](O)[C@H]2O)CC(O)CC1(C)C (stereo not given in full),,inactive
CN(C)c1nc2c(Br)c(Br)c(Br)c(Br)c2[nH]1,,active: 8.2 µM
COc1cc(C)c(C(=O)O[C@@H]2[C@H](O)[C@@H](CO)O[C@H]2n2ccc(=O)[nH]c2=O)c(OC)c1,,inactive
CC1(C)CCC2(C(=O)OC3OC(COC4OC(CO)C(O)C(O)C4O)C(O)C(O)C3O)CCC3(C)C(=CCC4C5(C)CCC(OC6OCC(O)C(O)C6O)C(C)(C)C5CCC43C)C2C1O (stereo not given),inactive: 90.4% [at 9.25 µM],
COc1ccc(O[C@@H]2O[C@H](CO)[C@@H](O)[C@H](O)[C@H]2O)cc1OC,,inactive
C[C@@H]1C[C@@H](O)[C@@]23CO[C@@H](O)[C@@H]2CCC[C@@H]3[C@@]12C[C@@H](c1ccoc1)OC2=O,,inactive
Cc1onc(C(=O)N2CCN(C(c3ccc(Cl)cc3)c3ccc(Cl)cc3)CC2)c1[N+](=O)[O-],,active: 4.61 µM
O=C1N=C(N2CCOCC2)CN1c1ccc(Cl)cc1,,inactive
C[C@]12CCC3=C4CCC(=O)C=C4CC[C@H]3[C@@H]1CC[C@@]2(O)CC#N,,inactive
C=C1CC[C@@H]2C(C)(C)CCC[C@@]2(C)[C@@H]1CC/C(=C/C(=O)OC)COC(C)=O,,inactive
COC1C(O)C(OC2CCC3(C)C(CCC45CCC6C7(COC(=O)C7)OC4(O)C6(C)CCC35)C2)OC(C)C1OC1OC(CO)C(OC2OC(CO)C(O)C(O)C2O)C(O)C1O (stereo not given),,"inconclusive [cytotoxic, single point]"
Cc1cc(O)cc(O[C@@H]2O[C@H](CO)[C@@H](O)[C@H](O)[C@H]2O)c1,,inactive
COc1ccc(Cl)cc1[C@@]1(F)C(=O)Nc2cc(C(F)(F)F)ccc21,,active: 6.51 µM
CC(=O)[C@H]1CC[C@H]2[C@@H]3CC=C4C[C@@H](OS(=O)(=O)O)CC[C@]4(C)[C@H]3CC[C@]12C,,"inconclusive [cytotoxic, single point]"
CC(=O)O[C@@H]1[C@@H](OC(=O)/C=C/c2ccccc2)[C@@H](OC(C)=O)[C@H](O[C@H]2[C@@H]3C=CO[C@@H](O[C@@H]4O[C@H](CO)[C@@H](O)[C@H](O)[C@H]4O)[C@@H]3[C@@]3(CO)O[C@@H]23)O[C@H]1C,,inactive
CC1(C)CCCC2(C)C1C(OC(=O)/C=C/C=C/C=O)C=C1COC(=O)C12O (stereo not given),,"inconclusive [cytotoxic, single point]"

SMILES,"viability, % of control",Potency
C=C1C(=O)O[C@@H]2[C@H]3C(C)=CC(=O)C3=C(C)[C@@H](OC(=O)/C(C)=C\C)[C@H](O)[C@@H]12,,active: 1.43 µM
Cc1ccc(C)c(NC(=O)[C@@H]2CCCN2S(=O)(=O)c2cccc3cccnc23)c1,,"inconclusive [cytotoxic, partial curve]"
C/C(=N\N=C(N)N)c1ccc(NC(=O)Nc2ccc(/C(C)=N/N=C(N)N)cc2)cc1,,active: 0.731 µM
O=C1O[C@H](C(O)CO)C(=O)C1=O (stereo not given in full),,inactive
CN(C)C(=O)Oc1cccc([N+](C)(C)C)c1,,inactive
O=c1cc[nH]c(=O)[nH]1,,inactive
Cc1cc(N2CCOCC2)ccc1Nc1nc(NC2CCCCC2)c2[nH]cnc2n1,,active: 0.461 µM
CCN(CC)CC1CCCCN1CC(=O)N1c2ccccc2C(=O)Nc2cccnc21 (stereo not given),,"inconclusive [cytotoxic, full curve, poor fit]"
O=C(/C=C/c1ccc2ccccc2n1)c1ccncc1,,active: 1.64 µM
O=C(O)c1ccnc(-c2cc(C(=O)NCCc3ccccc3)ccn2)c1,,inactive
C[C@@H]1O[C@@H](O[C@H]2[C@H](OC(=O)[C@]34CCC(C)(C)C[C@H]3C3=CCC5[C@@]6(C)C[C@H](O)[C@H](O[C@@H]7O[C@H](CO)[C@@H](O[C@@H]8O[C@H](CO)[C@@H](O)[C@H](O)[C@H]8O)[C@H](O)[C@H]7O)[C@@](C)(CO)C6[C@H](O)C[C@@]5(C)[C@]3(C)C[C@H]4O)OC[C@H](O)[C@@H]2O)[C@H](O)[C@H](O)[C@H]1O[C@@H]1OC[C@@H](O)[C@H](O[C@@H]2OC[C@](O)(CO)[C@H]2O)[C@H]1O (stereo not given in full),inactive: 108% [at 9.25 µM],
CC(CCc1ccc2c(c1)OCO2)NN (stereo not given),,"inconclusive [rising, full curve, poor fit]"
FC(F)(F)c1cc(C(F)(F)F)c2ccc3nc(-c4nnco4)cn3c2n1,,inactive
COc1ccc(CNC(=O)c2cc(-c3cncc(Cl)c3)cnc2-c2ccccn2)nc1OC,,inactive
C=CC(=O)Nc1cc(-n2c(=O)ccc3cnc4ccc(-c5ccc(NS(C)(=O)=O)cc5)cc4c32)ccc1C,,active: 1.3 µM
N#CCC(=O)NN,,inactive
COC(=O)[C@H](O)[C@H]1C(C)(C)[C@H](OC(=O)C(C)C)[C@@]2(O)C(=O)[C@]1(C)C1CC[C@]3(C)C(CC(=O)O[C@H]3c3ccoc3)[C@]13O[C@@H]32 (stereo not given in full),,inactive
Fc1ccc(N2CCN(CCC3OCCc4ccccc43)CC2)cc1 (stereo not given),,"inconclusive [cytotoxic, partial curve]"
C=CC(C)(O)CC/C=C(/C)COC(=O)C(C)C1CCC(C)(C=C)O1 (stereo not given),,"inconclusive [cytotoxic, single point]"
C=CC1(C)C=C2C(=O)OC(=O)C3=C(CCCC3(C)C)C2(O)CC1 (stereo not given),,"inconclusive [cytotoxic, partial curve]"
